Source: the antibiotic and cytotoxicity screens of Wong et al. (2023)
The list shows a part of the results.

Assays:
HSkMC = human skeletal muscle cells; test: cytotoxicity call (relative viability < 0.9); details: 10 µM
HepG2 = test: cytotoxicity call (relative viability < 0.9); details: 10 µM
S. aureus RN4220 = test: growth inhibition call (relative growth <= 0.2); details: 50 µM

SMILES	cytotoxicity call (HSkMC)	cytotoxicity call (HepG2)	growth inhibition call (S. aureus RN4220)
O=C(C[C@H]1C[C@H]2c3cc(NS(=O)(=O)c4ccc(F)cc4)ccc3O[C@H]2[C@@H](CO)O1)NCCc1ccccc1	inactive	inactive	inactive
CCCCCCNC(=O)n1cc(F)c(=O)[nH]c1=O	inactive	active	inactive
C[C@@H]1CN([C@@H](C)CO)C(=O)CCCn2cc(nn2)CO[C@H]1CN(C)S(=O)(=O)c1ccc(C#N)cc1	inactive	inactive	inactive
C[C@@H]1CN([C@H](C)CO)C(=O)c2cc(NC(=O)Nc3cccc4ccccc34)ccc2O[C@@H](C)CCCCO[C@@H]1CN(C)Cc1ccc(C(F)(F)F)cc1	inactive	inactive	inactive
C[C@H]1CCCCO[C@H](CN(C)C(=O)c2ccccc2)[C@@H](C)CN([C@@H](C)CO)C(=O)c2cc(NC(=O)C3CCCCC3)ccc2O1	inactive	inactive	inactive
Cc1noc(C)c1S(=O)(=O)Nc1ccc2c(c1)C(=O)N([C@@H](C)CO)C[C@H](C)[C@@H](CN(C)Cc1ccc(-c3ccccc3)cc1)O2	inactive	inactive	inactive
Cc1c2oc3c(C)ccc(C(=O)OC(C)C4NC(=O)C(C(C)C)N(C)C(=O)CN(C)C(=O)C5CCCN5C(=O)C(C(C)C)NC4=O)c3nc-2c(C(=O)OC(C)C2NC(=O)C(C(C)C)N(C)C(=O)CN(C)C(=O)C3CCCN3C(=O)C(C(C)C)NC2=O)c(N)c1=O (stereo not given)	inactive	active	active
C[C@@H]1CN([C@H](C)CO)C(=O)Cc2cc(NS(C)(=O)=O)ccc2O[C@H]1CN(C)C	inactive	inactive	inactive
C[C@H]1CN([C@@H](C)CO)C(=O)Cc2cc(NS(C)(=O)=O)ccc2O[C@H]1CN(C)Cc1ccc(C(=O)Nc2ccccc2N)cc1	inactive	inactive	inactive
O=C(C[C@@H]1CC[C@@H]2[C@H](COC[C@@H](O)CN2S(=O)(=O)c2ccccc2)O1)NCc1ccc(-c2ccccc2)cc1	inactive	inactive	inactive
Cc1noc(C)c1NC(=O)Nc1ccc2c(c1)C(=O)N([C@H](C)CO)C[C@H](C)[C@H](CN(C)Cc1ccc(C(=O)O)cc1)OCCCC[C@H](C)O2	inactive	inactive	inactive
CCCCCCCCCCCCCCCCOP(=O)([O-])OCC[N+](C)(C)C	inactive	inactive	inactive
Cc1c(C)c2c(c(C)c1OC(=O)CCC(=O)OCCO)CC[C@@](C)(CCC[C@H](C)CCC[C@H](C)CCCC(C)C)O2	inactive	inactive	inactive
C[C@H]1CCCCO[C@@H](CN(C)C(=O)C2CCCCC2)[C@@H](C)CN([C@@H](C)CO)C(=O)c2cc(NC(=O)c3ccccc3)ccc2O1	inactive	inactive	inactive
COc1ccc(CN(C)C[C@H]2Oc3ccc(NC(=O)CCN4CCOCC4)cc3CC(=O)N([C@H](C)CO)C[C@@H]2C)cc1	inactive	inactive	inactive
CCn1ccnc1CO	inactive	inactive	inactive
Cc1nc2cc(C)c(C)cc2s1	inactive	inactive	inactive
COc1ccc(CN(C)C[C@@H]2Oc3ccc(NC(=O)Cn4cnnn4)cc3C(=O)N([C@@H](C)CO)C[C@@H]2C)cc1	inactive	inactive	inactive
C[C@@H]1CN([C@@H](C)CO)C(=O)Cc2cc(NC(=O)CCCCCC(=O)Nc3ccccc3N)ccc2O[C@@H]1CN(C)C(=O)Nc1ccc(C(F)(F)F)cc1	inactive	inactive	inactive
C[C@H](CO)N1C[C@H](C)[C@H](CN(C)S(=O)(=O)c2cn(C)cn2)Oc2ncc(C#CC(C)(C)O)cc2C1=O	inactive	inactive	inactive
C[C@@H]1CN([C@H](C)CO)C(=O)Cc2cc(NC(=O)CCCCCC(=O)Nc3ccccc3N)ccc2O[C@H]1CN(C)C(=O)Nc1cccc2ccccc12	inactive	inactive	inactive
Cc1noc(C)c1NC(=O)N(C)C[C@@H]1OCCCC[C@@H](C)Oc2ccc(NC(=O)Nc3ccc(C(F)(F)F)cc3)cc2C(=O)N([C@@H](C)CO)C[C@H]1C	inactive	inactive	inactive
NC[C@@H](c1cccnc1)S(=O)(=O)c1ccc(Cl)cc1	inactive	inactive	inactive
COc1ccc(NC(=O)Nc2ccc3c(c2)C(=O)N([C@H](C)CO)C[C@H](C)[C@H](CN(C)Cc2ccc(C(F)(F)F)cc2)O3)cc1	inactive	inactive	inactive
O=C(CN1CCOCC1)N[C@H]1CC[C@H](CCNC(=O)C2CCC2)O[C@H]1CO	inactive	inactive	inactive
